Results: PMC4336329 (PLoS ONE, 2015)
Hit rate of the full screen: of about 310,000 compounds, about 14,000 (4.5%) showed an effect of 50% or more. The effect is printed as a negative number. This is one part of the list.

These compounds were tested against human ether-à-go-go-related gene (hERG) potassium channel (human, UniProt Q12809) (assay: primary screen, population patch clamp on CHO cells stably expressing hERG).
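Note: peak tail current of the secondary pulse compared with the same well before compound.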

human ether-à-go-go-related gene (hERG) potassium channel, sequence (Q12809 whole entry, looked up): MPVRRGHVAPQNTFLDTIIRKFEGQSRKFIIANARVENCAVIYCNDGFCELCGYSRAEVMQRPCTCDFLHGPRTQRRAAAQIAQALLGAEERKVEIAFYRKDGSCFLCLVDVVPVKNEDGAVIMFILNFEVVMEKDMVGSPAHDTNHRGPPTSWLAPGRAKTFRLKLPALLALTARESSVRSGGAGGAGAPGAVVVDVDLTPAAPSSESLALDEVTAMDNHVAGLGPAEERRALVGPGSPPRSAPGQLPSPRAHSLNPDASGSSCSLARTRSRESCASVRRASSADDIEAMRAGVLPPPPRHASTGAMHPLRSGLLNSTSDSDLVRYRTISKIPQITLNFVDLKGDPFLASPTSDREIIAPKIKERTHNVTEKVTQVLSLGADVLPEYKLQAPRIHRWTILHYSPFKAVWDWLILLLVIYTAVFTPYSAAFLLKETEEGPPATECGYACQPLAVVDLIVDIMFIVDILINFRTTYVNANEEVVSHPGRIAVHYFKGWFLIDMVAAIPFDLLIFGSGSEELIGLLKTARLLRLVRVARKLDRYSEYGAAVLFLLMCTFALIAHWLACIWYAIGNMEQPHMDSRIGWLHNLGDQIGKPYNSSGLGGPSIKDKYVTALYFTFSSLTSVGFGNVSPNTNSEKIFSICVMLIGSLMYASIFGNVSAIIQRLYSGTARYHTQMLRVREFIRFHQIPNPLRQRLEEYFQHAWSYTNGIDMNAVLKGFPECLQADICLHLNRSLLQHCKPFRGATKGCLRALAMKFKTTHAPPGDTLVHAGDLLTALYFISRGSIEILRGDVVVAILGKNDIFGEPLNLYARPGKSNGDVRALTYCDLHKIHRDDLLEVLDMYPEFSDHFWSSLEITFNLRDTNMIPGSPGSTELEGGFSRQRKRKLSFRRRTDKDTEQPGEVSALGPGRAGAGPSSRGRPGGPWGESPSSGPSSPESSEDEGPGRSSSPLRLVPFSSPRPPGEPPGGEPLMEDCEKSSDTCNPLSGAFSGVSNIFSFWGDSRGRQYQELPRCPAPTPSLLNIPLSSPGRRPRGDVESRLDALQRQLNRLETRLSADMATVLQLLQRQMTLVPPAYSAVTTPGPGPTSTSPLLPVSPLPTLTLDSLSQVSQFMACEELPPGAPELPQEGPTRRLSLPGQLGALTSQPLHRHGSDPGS

In order of falling “hERG current change (%, negative = inhibition) at 10uM” value:
1. Cc1c(CCC(C)C)c(=O)n2c([nH]c3ccccc32)c1C#N  26.3%
2. Cn1ncc2c(NNC(=O)C3CCCCC3)ncnc21  24.5%
3. COc1ccc(-c2noc(CCCC(=O)Nc3ccc(C(N)=O)cc3)n2)cc1  21.8%
4. O=C(Nc1ccncc1)c1cc(-c2ccccn2)nc2ccc(Br)cc12  19.7%
5. Fc1ccc(CNc2ncnc3cc(Cl)ccc23)cc1  19.6%
6. CN(C(=O)CCN1CCCO1)C1CCCN(Cc2ccccc2F)C1 (stereo not drawn)  19.2%
7. O=C(NCCNC(=O)c1cccc(O)c1)c1cccc(O)c1  18%
8. COc1ccc(Cc2nnc(N/N=C(\C)c3ccccc3)[nH]c2=O)cc1OC  17.8%
9. CCOc1ccc(NC(=O)CSC(N)=O)cc1  17%
10. Cc1cc(Cl)c2oc(C(=O)N3CCN(c4cccc(C)n4)CC3)c(C)c2c1  16.3%
11. Cc1ccc(N(CC(=O)NC(C)C)C(=O)CCC(=O)Nc2nccs2)cc1  16%
12. CCOC(=O)C1C(=O)NC(c2ccccc2)=NC1c1cccc(Br)c1 (stereo not drawn)  15.9%
13. Cc1csc(NC(=O)CSc2nnc(-c3cc(C)on3)o2)n1  14.6%
14. O=C(Nc1nnc(S(=O)(=O)N2CCCCCC2)s1)c1ccccc1Br  12.7%
15. O=C(O)c1ccc(-n2c(/C=C/c3ccccc3)nc3ccccc3c2=O)cc1  12.5%
16. O=C(Nc1ccccc1)Nc1ccc2snnc2c1  12.2%
17. S=c1nc(-c2cccc(Cl)c2)[nH][nH]1  12.2%
18. S=c1[nH]ncn1/N=C/c1ccccn1  11.7%
19. CC(C)Cn1c(N)c(C(=O)CSc2ccccc2)c(=O)n(C)c1=O  10.7%
20. Cn1cc(S(=O)(=O)N2CCCC(C(=O)O)C2)cn1 (stereo not drawn)  10.5%
21. Fc1cccc(F)c1-c1nc(-c2ccc(Cl)cc2)no1  10.3%
22. O=C(NC1CCOCC1)C1CCC(=O)N(CCc2cccc(F)c2)C1 (stereo not drawn)  10.2%
23. COc1ccc(N2CCN(C(=O)CN(C)S(=O)(=O)c3cnc[nH]3)CC2)cc1  8.89%
24. COc1ccc(OC)c(-c2nnc(SCC(=O)N3CCOCC3)o2)c1  8.27%
25. Cc1nc2ccccc2c2oc(C(=O)Nc3ccc4c(c3)OCCO4)cc12  7.41%
26. O=C(C1=C(O)C(=O)N(c2ncccn2)C1c1ccc(Cl)cc1)c1ccco1 (stereo not drawn)  7.37%
27. COc1ccccc1N=Cc1c(C)[nH]n(-c2ccc(C)cc2C)c1=O  6.84%
28. CC(=O)c1ccc(N2CCN(CN3C(=O)CC4(CCCC4)C3=O)CC2)c(F)c1  6.7%
29. C/C(=N\NC(=S)NC1CCCCC1)c1ccc(OC(F)F)cc1OC(F)F  6.5%
30. Cc1ncoc1C(=O)Nc1ccccc1C(N)=O  6.3%
31. Cn1c(C(=O)N2CCC(C(=O)NCc3ccccc3)CC2)cc2sccc21  6.22%
32. O=C(Nc1ccccc1)OC(CN1CCCCC1)C(F)(F)F (stereo not drawn)  6.17%
33. Cc1ccccc1OCCn1cnc2c(N)ncnc21  5.72%
34. Cc1ccc(S(=O)(=O)N2CCN(CCNC(=O)C(=O)NCc3ccccc3)CC2)cc1  5.65%
35. O=C(COc1ccccc1)N/N=C/c1ccc(O[C@@H]2O[C@H](CO)[C@@H](O)[C@H](O)[C@H]2O)cc1  5.52%
36. CC1CC(=O)N(CC(=O)Nc2ccc(F)cc2)c2ccccc2S1(=O)=O (stereo not drawn)  4%
37. COc1cc(NC(=O)C2CC2)c(OC)cc1NC(=O)CCC(=O)NC1CCN(Cc2ccccc2)CC1  2.82%
38. COC(=O)Nc1c(C)nn(Cc2ccccc2C)c1C  2.75%
39. Cc1ccc(-c2nc(NC(=O)c3ccc(S(=O)(=O)N(CCC#N)CCC#N)cc3)sc2-c2ccccc2)cc1  2.57%
40. CCOC(=O)CCNC(=O)N1CCCC(C(=O)c2ccc3c(c2)OCO3)C1 (stereo not drawn)  2.31%
41. COc1ccc(/C=C2\CCc3ccccc3C2=O)cc1Cn1cccn1  2.14%
42. Cn1c(CO)cnc1SCc1ccccc1  1.99%
43. C[S+](CC[C@H](N)C(=O)O)C[C@H]1O[C@@H](n2cnc3c(N)ncnc32)[C@H](O)[C@@H]1O.[Cl-] (stereo partly drawn)  1.39%
44. CCOC(=O)c1sc(NC(=O)Nc2ccccc2Cl)cc1C  0.573%
45. COc1ccc(NC(=O)c2sc(SC)nc2N)cc1  -0.0249%
46. CCOC(=O)c1ccc(-c2nnc(-c3ccc(Cl)cc3Cl)o2)cc1  -1.38%
47. Cc1cc(C)c(C)c(S(=O)(=O)N2CCC(C(=O)OCC(=O)N3c4ccccc4NC(=O)C3(C)C)CC2)c1C  -1.58%
48. CCOC(=O)c1ccc(NC(=O)C2(c3ccc(OC)cc3)CCOCC2)cc1  -1.79%
49. CSc1nc2ccccc2n1CC(=O)Nc1c(C)cccc1C  -1.99%
50. CCCC/C(=N/O)c1c(C)[nH]c2ccccc12  -2.13%
51. CC(C)(C)NC(=O)C(c1ccccn1)N(C(=O)c1ccc2c(c1)OCCO2)C1CCCC1 (stereo not drawn)  -3.07%
52. Cn1c(N)c(C#N)c(C#N)c1-c1ccccc1  -3.22%
53. CN1Cc2c(c(C#N)c(N)n(C)c2=S)CC1(C)C  -3.32%
54. Cc1cc(OCCOc2cccc3cccnc23)cc(C)c1Cl  -3.87%
55. COCCNC(=O)[C@H]1C[C@@H]1[C@H](NP(=O)(c1ccccc1)c1ccccc1)c1ccccc1  -4.49%
56. Cc1c(C(=O)O/N=C(\N)c2ccccn2)cccc1[N+](=O)[O-]  -4.89%
57. O=C(c1ccc([N+](=O)[O-])cc1)N(C1=NCCCCS1)c1ccccc1  -5.07%
58. COc1ccc(CCNC(=O)c2cc3sc(Cl)cc3n2C)cc1OC  -5.93%
59. CCN(C(=O)COC(=O)c1cccc(S(=O)(=O)N2CCOCC2)c1)C1CCS(=O)(=O)C1 (stereo not drawn)  -6.01%
60. CCOc1ccc(-c2nnc(N(CC)C(=O)C3CCC3)s2)cc1  -6.07%
61. C/C=C(\C)C(=O)OC1C(C)=C2C(C1OC(=O)CCCCC)C(C)(OC(C)=O)CC(OC(=O)CCC)C1(O)C2OC(=O)C1(C)O (stereo not drawn)  -6.49%
62. COCCCNC(=O)c1ccc(Cn2c(=O)c3ccccc3n(Cc3cc(C)ccc3C)c2=O)cc1  -7.17%
63. Cc1nc2ccccc2c2nc3ccccc3n12  -8.2%
64. COc1ccc(C(=O)Nc2ccc(C)cc2C(=O)c2ccccc2)cc1  -9.17%
65. Cc1ccc(-c2noc(CSc3nnc(-c4ccncc4)n3-c3ccc(F)cc3)n2)cc1  -10.3%
66. CN(Cc1c(F)cccc1Cl)C(=O)c1ccc2ccccc2n1  -11.6%
67. CCC(C)C(=O)Nc1c2c(nc3c1CCC3)CCCC2 (stereo not drawn)  -11.7%
68. O=C(Nc1ccc(N2CCOCC2)cc1)C1(c2ccc(Cl)cc2)CCC1  -11.8%
69. Cc1cccn2cc(CCNC(=O)Cc3cccs3)nc12  -12.4%
70. Nc1ccc(S(=O)(=O)c2ccccc2)nc1  -13%
71. COCCn1c(SCC(=O)N2CCOCC2)nc2c(c1=O)SCC2  -14.1%
72. CCOC(=O)c1cccc(NC(=O)/C=C/c2cccc([N+](=O)[O-])c2)c1  -15.4%
73. Cc1ccc(C(=O)C2CCN(CC(=O)NC3CCCCC3)CC2)cc1  -15.9%
74. COC(=O)Nc1ccc(S(=O)(=O)NCCO)cc1  -16.4%
75. O=C(c1ccc2c(c1)OCO2)N(c1ccc(Cl)cc1)C1C=CS(=O)(=O)C1 (stereo not drawn)  -16.8%
76. CN(C(=O)c1ccc2c(Cl)c3c(nc2c1)CCC3)c1ccccc1  -18.1%
77. Cc1nn2c(-c3ccncc3)nnc2c2ccccc12  -22.8%
78. Cc1ccc(C)c2[nH]c(=O)c(CCNC(=O)c3ccc(S(=O)(=O)N4CCOCC4)cc3)cc12  -27.5%
79. O=C1CC(N2CCN(Cc3ccc4c(c3)OCO4)CC2)C(=O)N1c1cccc(Cl)c1 (stereo not drawn)  -28.6%
80. CCCN1CCc2c(sc(NC(=O)c3ccc(S(=O)(=O)N(C)c4ccccc4)cc3)c2C(=O)NC)C1  -29%
81. COc1cc2cc(CCCOC(=O)c3ccc(F)cc3)oc(=O)c2cc1OC  -29.5%
82. O=C(Nc1cccc(NC(=O)c2ccccc2)n1)c1ccccc1  -30.4%
83. Cc1ccc2nc(N(CCCN(C)C)C(=O)CN3C(=O)c4ccccc4C3=O)sc2c1.Cl  -47.5%
84. COc1ccccc1Oc1coc2cc(OC(=O)N3CCOCC3)ccc2c1=O  -56.4%
85. O=C(NCC1CCCO1)C1CCN(C2CCN(CCCC3CCCC3)CC2)CC1 (stereo not drawn)  -58%
86. Br.CC(C)(C)c1ccc(OCC(=O)NN2Cc3ccccc3C2=N)cc1  -65.5%
87. CC(C)Cc1nnc(NC(=O)CCC(=O)N2CCN(c3ccc([N+](=O)[O-])cc3)CC2)s1  -72.3%
